# Test results reported in a collection of fitness landscapes (doi:10.1126/science.1257360).
# This is one part of the list.
# B1: PhoQ; a variant is named by its letters at X, in order, P23837 (parent)
# chain: MKKLLRLFFPLSLRVRFLLATAAVVLVLSLAYGMVALIGYSVSFDKTTFRLLRGESNLFYTLAKWENNKLHVELPENIDKQSPTMTLIYDENGQLLWAQRDVPWLMKMIQPDWLKSNGFHEIEADVNDTSLLLSGDHSIQQQLQEVREDDDDAEMTHSVAVNVYPATSRMPKLTIVVVDTIPVELKSSYMVWSWFIYVLSANLLLVIPLLWVAAWWSLRPIEALAKEVRELEEHNRELLNPATTRELTSLVRNLNRLLKSERERYDKYRTTLTDLTHSLKTPLXXLQXXLRSLRSEKMSVSDAEPVMLEQISRISQQIGYYLHRASMRGGTLLSRELHPVAPLLDNLTSALNKVYQRKGVNISLDISPEISFVGEQNDFVEVMGNVLDNACKYCLEFVEISARQTDEHLYIVVEDDGPGIPLSKREVIFDRGQRVDTLRPGQGVGLAVAREITEQYEGKIVAGESMLGGARMEVIFGRQHSAPKDE
# Variants of: B1
# Experiment: enrichment ratio after two sorts for PhoP signalling (ratio (wild type AVST 3.29)); higher = more functional
# Details: with PhoP (E. coli)
row,Variant,enrichment ratio
1,DDKN,≤ 0.25
2,WPTS,≤ 0.25
3,IEPD,≤ 0.25
4,SYRN,≤ 0.25
5,APEL,≤ 0.25
6,HMKV,≤ 0.25
7,YSPE,≤ 0.25
8,VFSI,≤ 0.25
9,DKHP,≤ 0.25
10,YAFA,≤ 0.25
11,PCSF,≤ 0.25
12,DVFK,≤ 0.25
13,RAFT,≤ 0.25
14,DCMC,≤ 0.25
15,VWYV,≤ 0.25
16,YYAY,≤ 0.25
17,RGSH,≤ 0.25
18,GNQP,≤ 0.25
19,FSIV,2.95
20,IRRY,≤ 0.25
21,LDEC,≤ 0.25
22,PQCC,≤ 0.25
23,WESV,≤ 0.25
24,YCMG,≤ 0.25
25,TYDD,≤ 0.25
26,QPHS,≤ 0.25

row,Variant,enrichment ratio
1,ELRI,≤ 0.25
2,CILH,≤ 0.25
3,ISAN,≤ 0.25
4,WEIC,≤ 0.25
5,WEYF,≤ 0.25
6,NFSY,≤ 0.25
7,REEA,≤ 0.25
8,RNPH,≤ 0.25
9,RYFM,≤ 0.25
10,DEKV,≤ 0.25
11,DHFE,≤ 0.25
12,LDYR,≤ 0.25
13,TVHI,2.95
14,IAIM,≤ 0.25
15,MNYT,≤ 0.25
16,HEGR,≤ 0.25
17,TPVV,≤ 0.25
18,IGHE,≤ 0.25
19,GYNR,≤ 0.25
20,MSQC,≤ 0.25
21,LGQP,≤ 0.25
22,WDSR,≤ 0.25
23,IWDF,≤ 0.25
24,VVKC,≤ 0.25
25,RSDY,≤ 0.25
26,DSAI,≤ 0.25

row,Variant,enrichment ratio
1,SLSP,≤ 0.25
2,QDWE,≤ 0.25
3,KGVY,≤ 0.25
4,SMMC,16.1
5,YHLV,≤ 0.25
6,FVHN,≤ 0.25
7,VQWL,≤ 0.25
8,SEYR,≤ 0.25
9,VRCM,≤ 0.25
10,YYWL,≤ 0.25
11,MFFD,≤ 0.25
12,ENLI,≤ 0.25
13,FALD,≤ 0.25
14,RTYI,≤ 0.25
15,VWAM,≤ 0.25
16,KLAR,≤ 0.25
17,EMYA,≤ 0.25
18,NTKF,≤ 0.25
19,VVTF,≤ 0.25
20,YVTR,≤ 0.25
21,FVGY,≤ 0.25
22,NGTE,≤ 0.25
23,PADP,≤ 0.25
24,AQVV,6.19
25,PEPY,≤ 0.25
26,NLSC,≤ 0.25

row,Variant,enrichment ratio
1,SYSD,≤ 0.25
2,GECA,1.47
3,KRKA,≤ 0.25
4,EWKS,≤ 0.25
5,HHMM,≤ 0.25
6,VGNT,≤ 0.25
7,ECTN,≤ 0.25
8,MENL,≤ 0.25
9,IMNF,≤ 0.25
10,NMKG,≤ 0.25
11,PVMS,≤ 0.25
12,MVWI,≤ 0.25
13,EFTD,≤ 0.25
14,SDMW,≤ 0.25
15,HRYI,≤ 0.25
16,VAWC,≤ 0.25
17,LFVM,≤ 0.25
18,DRRI,≤ 0.25
19,VWWK,≤ 0.25
20,AKRA,≤ 0.25
21,IPSS,≤ 0.25
22,ADTG,≤ 0.25
23,TWHG,≤ 0.25
24,ARQY,≤ 0.25
25,HFKD,≤ 0.25
26,KNMG,≤ 0.25

row,Variant,enrichment ratio
1,VDLD,≤ 0.25
2,ERQW,≤ 0.25
3,MKQY,≤ 0.25
4,SKAF,≤ 0.25
5,VVMN,≤ 0.25
6,RVDK,≤ 0.25
7,MGCI,5.38
8,PVMH,≤ 0.25
9,MSTN,≤ 0.25
10,YMHV,≤ 0.25
11,NRTG,≤ 0.25
12,RICN,≤ 0.25
13,QIRR,≤ 0.25
14,FLAC,≤ 0.25
15,GTRE,≤ 0.25
16,NCIA,≤ 0.25
17,GQNV,≤ 0.25
18,KIYA,≤ 0.25
19,HTNI,≤ 0.25
20,QTHD,≤ 0.25
21,LLRC,≤ 0.25
22,WPSN,≤ 0.25
23,PHLY,≤ 0.25
24,HQNY,≤ 0.25
25,YEFY,≤ 0.25
26,SPNR,≤ 0.25

row,Variant,enrichment ratio
1,QFTT,≤ 0.25
2,YWDA,≤ 0.25
3,TSIA,2.99
4,NQWY,≤ 0.25
5,LKQV,≤ 0.25
6,WDKV,≤ 0.25
7,ASYM,3.51
8,RGDH,≤ 0.25
9,DEEM,≤ 0.25
10,TRNG,≤ 0.25
11,FYGY,≤ 0.25
12,LREY,≤ 0.25
13,NALV,≤ 0.25
14,NTNV,≤ 0.25
15,MYNS,≤ 0.25
16,RFQH,≤ 0.25
17,VCNP,≤ 0.25
18,KHTK,≤ 0.25
19,QGYV,11.2
20,RYST,≤ 0.25
21,LWVN,≤ 0.25
22,MHTE,≤ 0.25
23,LKHD,≤ 0.25
